In the supplement of paper PMC11417369:
The list shows a part of the results.

Test system: PF3D7_0420300 AP2 domain 1 (GST-tagged)
Test: gcPBM binding intensity (ln(normalized median fluorescence intensity)); higher = stronger DNA binding
Method in brief: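 Alexa488 anti-GST antibody, scanned at 488 nm, detected GST-tagged P. falciparum DNA-binding domains that had been expressed in E. coli and incubated for 1 h on an Agilent 4 × 180k array. The array carried primer-extended double-stranded 36-bp intergenic genomic probes and negative controls. Binding intensity is the highest Masliner-normalised natural-log median intensity across replicate spots of either orientation of each probe.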

| Sequence | gcPBM binding intensity (ln) |
| --- | --- |
| AATCAATATTATATATGTACTTATTTTCACTTTTGC [XGTACX_site1775] | 9.26 |
| TTTTTAGAAAAGGTTATAAAAAATTAATTGAAAAAA [GTGCAC_negctrl_site289] | 8.7 |
| TTGTCATTATTATATTGTACAATAAGTATTAAAGAA [XGTACX_site1205] | 9.18 |
| ATTTTAATTTTGTATACACACATTTGAATTATTAAT [CACACA_site3528] | 9.54 |
| AAATAATACATTCGTACTACACATATATATTAAATA [XGTACX_site7806] | 9.33 |
| AATATATACATATATACACACACATATATATATATA [CACACA_site8907] | 9.75 |
| TAAAATGTTATAAGAACATGCAATTCCTTTTATTAT [TGCATGCA_site408] | 9.03 |
| ATATATTATATTATATGTACTTAAAAAAGTGCAAAG [XGTACX_site318] | 9.03 |
| TATATTCAATTTTTGGTGCGTAAATTAATACAAACA [GTGCAC_site9764] | 9.06 |
| CGGACATACTAACGGACACACGTAAGAAAAAAAAAG [CACACA_site4504] | 9.48 |
| ATGCACGGAAAAATATGTACTTAATTTCAATAATAT [XGTACX_site8311] | 9.28 |
| TATATGTCCATATTTCCACACACATATTATTTTTAT [CACACA_site9266] | 9.81 |
| TTTTTTCAATAAATAATCGTATATTGAATAATAATA [CACACA_negctrl_site822] | 8.85 |
| AGAGAGAACGGTATAACATGCGATAAATTTTAGAAG [TGCATGCA_site357] | 9.44 |
| TATTAATTTTTCCTTTTTTTTTTACCCCTTTGTACA [CACACA_negctrl_site947] | 9.19 |
| TATATATTTTATATATGTACATATTTATATGTTTCT [XGTACX_site1818] | 9.19 |
| CGCGAACATACATACACACACATATATATATATGTA [CACACA_site205] | 9.76 |
| TTTTTTTTTTTTTGAACACACATTATTAACTTTTAT [CACACA_site6281] | 9.19 |
| AAAAAAAAGTTATATACACACATATAAATATAAATA [CACACA_site6683] | 9.56 |
| CATGTAAAATATTAAAGTACATGATTATATATATAT [XGTACX_site7486] | 9.26 |
| AAAAATATTAAAAGGCGTACAATACCTGTATGCAAC [XGTACX_site6069] | 9.38 |
| AGCTAAAATATTTTTGCACACGATTTTTTTTTTTTT [CACACA_site1140] | 9.29 |
| TATATTTATATAATATGTACATATTTTTTAATATTT [XGTACX_site3834] | 9.03 |
| TATTTTATTTTCCGAAGTACAAAAGCAAAAAAAAAC [XGTACX_site103] | 9.19 |
